# Among all 310,000 compounds or so, about 11,000 (3.5%) were called active. The shares of active, inactive and inconclusive entries below differ from those in the screen. Calls come from the whole dose curve; as a rule, active = well fitted inhibition curve with a large enough effect; inconclusive = small, poorly fitted or top-dose-only effect, or effect the other way; inactive = flat fitted curve, though single readings scatter. Potencies of inconclusive entries are left out as doubtful fits.
# Assay: VP16 counterscreen qHTS for inhibitors of ROR gamma transcriptional activity;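 note: Gal4-VP16 expression switched on by copper sulfate through the metallothionein promoter; nearly all actives have a fitted effect of over 50% in size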
# Settings: Drosophila S2 Gal4-VP16 UAS-luciferase, luminescence, 20 h; series mostly up to 53.6 µM; activity, negative = inhibition: at the top concentration
# % is set by controls: 0 for no effect and ±100 for the full control effect; potency is the fitted concentration of half-maximal effect; tags give direction and shape of the fitted curve.
Compound,Potency,"activity, negative = inhibition"
O=c1c2ccccc2[se]n1-c1ccccc1,active: 11.2 µM,–
CC1CCC(C(C)C)C(OC(=O)c2ccccc2N)C1 (configuration not stated),"inconclusive [inhibitor, single point]",–
C[n+]1c(-c2ccccc2)c2cc(N)ccc2c2ccc(N)cc21,active: 12.6 µM,–
COc1cc(OC)cc(C(=O)N2CCC(N3CCN(c4ccccc4)CC3)CC2)c1,"inconclusive [inhibitor, single point]",–
CN(C(=O)Oc1ccc(C(C)(C)C)cc1)c1ccccc1,"inconclusive [inhibitor, single point]",–
CC(Cc1ccccc1)NC(=O)C(c1ccc(N)cc1)c1ccc(N)cc1 (configuration not stated),–,inactive: -0.346%
O=C(Oc1ccc(Br)cc1C(=S)N1CCCC1)c1ccccc1Cl,"inconclusive [inhibitor, single point]",–
COC(=O)C1=Nc2ccccc2/C1=C\c1c(O)n(-c2ccc(Br)cc2)c(=O)[nH]c1=O,"inconclusive [inhibitor, partial curve, poor fit]",–
N#Cc1nn(-c2c(Cl)cc(C(F)(F)F)cc2Cl)c(N)c1S(=O)C(F)(F)F (configuration not stated),active: 20 µM,–
Cc1[nH]c(=S)c(C#N)c2c1CCCC2,"inconclusive [inhibitor, single point]",–
CC[N+](C)(CC)CCC[n+]1c(-c2ccccc2)c2cc(N)ccc2c2ccc(N)cc21,active: 2.51 µM,–
O=C(O)c1ccccc1Nc1cccc(C(F)(F)F)c1,"inconclusive [inhibitor, single point]",–
CN[C@H]1C[C@H]2O[C@@](C)([C@H]1OC)n1c3ccccc3c3c4c(c5c6ccccc6n2c5c31)C(=O)NC4,active: 6.31 µM,–
CCCCCc1nc2ccccc2c(=O)n1-c1ccccc1[N+](=O)[O-],–,inactive: 11.4%
CCOc1cc(CNCCc2c[nH]c3ccccc23)cc(Cl)c1OC,"inconclusive [inhibitor, single point]",–
Cc1cccc(N2C(=O)NC(=O)/C(=C\C=C\c3ccco3)C2=O)c1,"inconclusive [inhibitor, single point]",–
O=C(Cn1ncc2c3ccccc3n(Cc3ccccc3F)c2c1=O)N1CCC2(CC1)OCCO2,–,inactive: 1.39%
O=C(Oc1c(Cl)cc(Cl)c2ccccc12)N1CCCCC1,"inconclusive [inhibitor, single point]",–
CC(C)=CCCC1(C)C=Cc2c(O)c3c(c(CC=C(C)C)c2O1)OC12C(=CC4CC1C(C)(C)OC2(C/C=C(/C)C(=O)O)C4=O)C3=O (configuration not stated),active: 5.01 µM,–
CCOP(=O)(OCC)/C(C#N)=C/c1ccc(Br)cc1,–,inactive: -5.4%
O=C1Nc2cc(Cl)c(Cl)cc2N2CCNC[C@H]12,"inconclusive [activator, full curve]",–
C[C@H]1CC[C@@H]2[C@@H](C)C(=O)O[C@H]3O[C@@]4(C)CC[C@H]1[C@@]32OO4,–,inactive: -4.75% [at 17 µM]
CCCC1=C(C(=O)OCC)C2(C(=O)Nc3ccccc32)C(C#N)=C(N)O1 (configuration not stated),"inconclusive [inhibitor, full curve]",–
CCOP(=O)(OCC)/C(=N/OC(=O)c1ccccc1C)C(N)=O,"inconclusive [inhibitor, single point]",–

Compound,Potency,"activity, negative = inhibition"
CCCCCCC(=O)N/N=C/c1c(O)n(C2CC2)c(=S)[nH]c1=O,–,inactive: -14.5%
CCOC(=O)C1(c2ccccc2)CCN(CC(=O)Nc2cccc3ccccc23)CC1,–,inactive: -1.05%
CC(C)(C)NC(=O)N1c2ccccc2Sc2ccccc21,"inconclusive [inhibitor, single point]",–
Nc1cc(Cl)c2nonc2c1[N+](=O)[O-],active: 2.82 µM,–
Nc1ccccc1N=Cc1c(O)n(CCC2=CCCCC2)c(=O)[nH]c1=O,–,inactive: 8.04%
O=Nc1ccc(Nc2ccccc2)cc1,"inconclusive [inhibitor, single point]",–
COc1ccc(O)c2c(=O)c3c(OC)cc4c(c3oc12)C1C=COC1O4 (configuration not stated),"inconclusive [inhibitor, full curve]",–
CCCCCc1nc2c(c(=O)c3ccccc3n2C)c(=O)n1C1CCCCCC1,"inconclusive [inhibitor, partial curve]",–
COc1ccc2cc1Oc1ccc(cc1)C[C@H]1c3cc(c(OC)cc3CCN1C)Oc1c(O)c(OC)cc3c1[C@H](C2)N(C)CC3,"inconclusive [inhibitor, single point]",–
CCC(=NCc1cccnc1)c1c(O)n(-c2ccc(Cl)cc2)c(=O)[nH]c1=O,–,inactive: -1.65%
Oc1c(Br)c(Br)c(Br)c(Br)c1Br,"inconclusive [inhibitor, single point]",–
CCOc1cc(C)cc2oc(=O)c3c(c12)CCCC3,–,inactive: -0.621%
COc1cc(NS(=O)(=O)c2ccc3c(c2)oc(=O)n3C)cc(OC)c1OC,"inconclusive [inhibitor, single point]",–
CCCCn1c(=O)c(C(=O)Nc2ccccc2N)c(O)c2ccccc21,active: 7.08 µM,–
COc1cccc(C2CCN(CC(=O)Nc3cc(Cl)ccc3OC)CC2O)c1 (configuration not stated),"inconclusive [inhibitor, full curve]",–
CO[C@H]1[C@@H](O)[C@@H](C)O[C@H](O[C@H]2[C@H](Oc3cccc4c(O)c5c(=O)oc6ccc(C)c7c(=O)oc(c34)c5c67)O[C@H](C)[C@H](O)[C@@H]2O)[C@@H]1O,"inconclusive [inhibitor, single point]",–
O=C(COc1ccc(S(=O)(=O)N2CCOCC2)cc1)N1CCN(Cc2ccc3c(c2)OCO3)CC1,"inconclusive [inhibitor, single point]",–
COc1cc2[nH]c(=O)n(-c3ccccc3)c(=O)c2cc1OC,–,inactive: 5.15%
CCn1c(NN=O)nc2ccccc21,"inconclusive [inhibitor, full curve, poor fit]",–
CC1(C)C(=O)C=C[C@@]2(C)C1CC(O)[C@]1(C)C2CC[C@@]2(C)C(c3ccoc3)OC(=O)C3O[C@]312 (some centres not stated),"inconclusive [inhibitor, single point]",–
O[N+]1=CC=CCC1=S.On1ccccc1=S.[Zn],active: 0.501 µM,–
Fc1ccc(C(OCCN2CCN(C/C=C\c3ccccc3)CC2)c2ccc(F)cc2)cc1,active: 15.8 µM,–
O=C(N/N=C/c1cc(Br)c(Br)s1)c1ccncc1,active: 1 µM,–
COc1cccc(N2C(=O)NC(=O)/C(=C/c3ccc4c(c3)Cc3ccccc3-4)C2=O)c1,"inconclusive [inhibitor, partial curve]",–

Compound,Potency,"activity, negative = inhibition"
COP(=O)(OC)C(O)C(Cl)(Cl)Cl (configuration not stated),inactive,–
CC(C)OC(=O)c1c(N)n(CC2CCCO2)c2nc3ccccc3nc12 (configuration not stated),–,inactive: -7.96%
Cc1ccsc1/C=C1\C(=O)NC(=S)N(C)C1=O,active: 22.4 µM,–
CCCCCCn1c(=O)c(C(=O)Nc2ncccc2O)c(O)c2ccccc21,–,inactive: 7.9%
CCc1ccc(CNCCc2c[nH]c3ccccc23)cc1,–,inactive: 0.827%
COC(=O)C1=CO[C@@H](C)[C@@H]2CN3CCc4c([nH]c5cc(OC)ccc45)[C@@H]3C[C@H]12,–,inactive: 2.88%
CCCCCSc1cc(OC)c(CCN)cc1OC,"inconclusive [inhibitor, single point]",–
N#CC(C#N)=NNc1ccc(S(=O)(=O)N2CCCC2)cc1,"inconclusive [inhibitor, single point]",–
O=C(COC(=O)c1ccc(O)cc1)Nc1ccc(Cl)cc1C(=O)c1ccccc1,"inconclusive [inhibitor, single point]",–
CN=C(SCc1cc2c(cc1Cl)OCO2)c1c(O)n(C)c(=O)n(C)c1=O,"inconclusive [inhibitor, single point]",–
O=C(N/N=C/c1ccccc1OC(=O)N1CCOCC1)c1cccs1,active: 12.6 µM,–
CCn1c(O)c(/C=N/NC(=O)c2ccccc2)c(=O)[nH]c1=S,"inconclusive [inhibitor, single point]",–
CN(C)S(=O)(=O)c1ccc(C(=O)NNc2nc(-c3ccccc3)c3cc(Br)ccc3n2)cc1,"inconclusive [inhibitor, partial curve]",–
O=c1[nH]sc2cc(F)ccc12,active: 2.82 µM,–
CC(C)(C)NC(=O)NC(=O)CN1CC=C(c2ccccc2)CC1,–,inactive: 1.97%
CCOP(=O)(OCC)C1(O)C(=O)Nc2ccccc21 (configuration not stated),"inconclusive [inhibitor, single point]",–
CN(C)c1ccc(NC(=O)CN2C(=O)CN=C(c3ccccc3)c3ccccc32)cc1,–,inactive: 3.43%
N=Cc1c(O)n(-c2ccc(C34CC5CC(CC(C5)C3)C4)cc2)c(=O)[nH]c1=O,–,inactive: -3.01%
O=C(N/N=C/c1c(O)n(Cc2ccccc2)c(=O)[nH]c1=O)c1ccccc1,"inconclusive [inhibitor, single point]",–
Cc1ccc(-n2nc(C)c3c2OC(N)=C(C#N)C3c2cccs2)cc1 (configuration not stated),"inconclusive [inhibitor, single point]",–
Cc1ccc(N)c(C(=O)c2ccc(Br)cc2)c1,"inconclusive [inhibitor, single point]",–
O=C(Nc1ccc(Br)cc1C(=O)O)c1ccc2c(c1)C(=O)N(Cc1ccccc1)C2=O,"inconclusive [inhibitor, single point]",–
NP(=O)(OCC(F)(F)F)Oc1cccc2ccccc12 (configuration not stated),"inconclusive [activator, single point]",–
COP(=O)(OC)Oc1ccc(C(O)C(Cl)(Cl)Cl)cc1 (configuration not stated),"inconclusive [activator, single point]",–

# Reference: PubChem BioAssay AID2546 (National Center for Advancing Translational Sciences (NCATS), 2010)
